Patent US8980944B2 (Gemmus Pharma Inc., priority 2006, dated 2015)

Legend:
[1] = Study B: single oral administration up to 375 μg in volunteers; conditions: human volunteers, single oral dose 50 to 375 μg; higher doses = 255 μg and 375 μg
Method: 12 volunteers were given a single oral dose of Nileprost at 50, 75, 112, 255 or 375 μg. The following parameters were studied: Blood pressure, heart rate, ECG, lung function, clinical chemistry and hematology, platelet aggregation, and stools.

[2] = Study A: tolerance and pharmacokinetics in volunteers after single oral dose; conditions: human volunteers, single oral dose 2, 4, 8, 16, 32, or 65 μg
Method: 14 volunteers were given a single oral dose of Nileprost at 2, 4, 8, 16, 32, or 65 μg. The following parameters were studied: Blood pressure, heart rate, clinical chemistry, platelet aggregation, and ECG.

SMILES: CCCCC(C)[C@H](O)/C=C/[C@@H]1[C@H]2C/C(=C(\C#N)CCCC(=O)O)O[C@H]2C[C@H]1O (some centres unmarked) [Nileprost]
- Tolerance (blood pressure, heart rate, ECG, lung function, clinical chemistry and hematology, platelet aggregation, stools) [1]: No findings but “painless diarrhea” in higher doses
- Tolerance (blood pressure, heart rate, clinical chemistry, platelet aggregation, ECG) [2]: No findings but enteropooling in higher doses
